To fix the notation:
B1: PhoQ; a variant is named by its letters at X, in order, P23837 (parent)
chain: MKKLLRLFFPLSLRVRFLLATAAVVLVLSLAYGMVALIGYSVSFDKTTFRLLRGESNLFYTLAKWENNKLHVELPENIDKQSPTMTLIYDENGQLLWAQRDVPWLMKMIQPDWLKSNGFHEIEADVNDTSLLLSGDHSIQQQLQEVREDDDDAEMTHSVAVNVYPATSRMPKLTIVVVDTIPVELKSSYMVWSWFIYVLSANLLLVIPLLWVAAWWSLRPIEALAKEVRELEEHNRELLNPATTRELTSLVRNLNRLLKSERERYDKYRTTLTDLTHSLKTPLXXLQXXLRSLRSEKMSVSDAEPVMLEQISRISQQIGYYLHRASMRGGTLLSRELHPVAPLLDNLTSALNKVYQRKGVNISLDISPEISFVGEQNDFVEVMGNVLDNACKYCLEFVEISARQTDEHLYIVVEDDGPGIPLSKREVIFDRGQRVDTLRPGQGVGLAVAREITEQYEGKIVAGESMLGGARMEVIFGRQHSAPKDE

The list shows a part of the results. Where only a bound is given, the exact number is not on record here.

The assay covers variants of B1. Nature of the assay: enrichment ratio after two sorts for PhoP signalling (ratio (wild type AVST 3.29)); higher = more functional. The note with it: with PhoP (E. coli).
On to RKTE, for which the enrichment ratio was not above 0.25.

Turning to KSNV, the enrichment ratio is not above 0.25.

Take SCQW: the enrichment ratio was not above 0.25.

Turning to FLRA, the enrichment ratio was not above 0.25.

For the variant LRLK, the enrichment ratio was not above 0.25.

With KYKW, the enrichment ratio is not above 0.25.

Regarding MMWM, the enrichment ratio is not above 0.25.

As for FWNF, the enrichment ratio is not above 0.25.

Turning to DDPF, the enrichment ratio is not above 0.25.

PKDY: the enrichment ratio was not above 0.25.

Take PRTT: the enrichment ratio is not above 0.25.

Regarding ELND, the enrichment ratio is not above 0.25.

Consider HVFR, for which the enrichment ratio was not above 0.25.

Turning to HEIR, the enrichment ratio was not above 0.25.

With DGWC, the enrichment ratio is not above 0.25.

As to DYYV, the enrichment ratio was not above 0.25.

Take QLNQ: the enrichment ratio was not above 0.25.

SGPH: the enrichment ratio was not above 0.25.

Regarding HIRM, the enrichment ratio is not above 0.25.

For the variant WPEL, the enrichment ratio was not above 0.25.

Turning to RMSF, the enrichment ratio is not above 0.25.

With PPLE, the enrichment ratio is not above 0.25.

For the variant HMCF, the enrichment ratio was 2.28.

Consider YEHC, for which the enrichment ratio was not above 0.25.

SQRH: the enrichment ratio was not above 0.25.

For the variant WKPE, the enrichment ratio is not above 0.25.

Take DITD: the enrichment ratio was not above 0.25.

Turning to TEII, the enrichment ratio is 0.267.

On to RTWC, for which the enrichment ratio was not above 0.25.

For the variant YIWH, the enrichment ratio was not above 0.25.

As to DKGS, the enrichment ratio is not above 0.25.

In the case of KFAQ, the enrichment ratio is not above 0.25.

As to SNWS, the enrichment ratio was not above 0.25.

On to SPGD, for which the enrichment ratio is not above 0.25.

As for HFFF, the enrichment ratio is not above 0.25.

Turning to KICS, the enrichment ratio was not above 0.25.

Consider QDDD, for which the enrichment ratio was not above 0.25.

Regarding MYKG, the enrichment ratio was not above 0.25.

With RELV, the enrichment ratio is not above 0.25.

Take QNEF: the enrichment ratio is not above 0.25.

On to NGFS, for which the enrichment ratio is not above 0.25.

For the variant SIRC, the enrichment ratio was not above 0.25.

As for PTAA, the enrichment ratio was not above 0.25.

With SFQD, the enrichment ratio was not above 0.25.

Turning to KYCQ, the enrichment ratio was not above 0.25.

In the case of HRLP, the enrichment ratio was not above 0.25.

For PEYR, the enrichment ratio is not above 0.25.

For NNNR, the enrichment ratio is not above 0.25.

For the variant VRET, the enrichment ratio is not above 0.25.

As to SQVL, the enrichment ratio is 8.13.

For the variant RACL, the enrichment ratio was not above 0.25.

Take GGAH: the enrichment ratio is not above 0.25.

For the variant RPIT, the enrichment ratio is not above 0.25.

For FSVS, the enrichment ratio was not above 0.25.

Take EDHQ: the enrichment ratio is not above 0.25.

On to YYIY, for which the enrichment ratio was not above 0.25.

GDIK: the enrichment ratio was not above 0.25.

For ARGS, the enrichment ratio was not above 0.25.

Consider HCWI, for which the enrichment ratio is not above 0.25.

As to GYQS, the enrichment ratio was not above 0.25.

Consider VSPY, for which the enrichment ratio was not above 0.25.

Take MSRH: the enrichment ratio was not above 0.25.

FQMN: the enrichment ratio was not above 0.25.

For KLGR, the enrichment ratio was not above 0.25.

As to WERN, the enrichment ratio is not above 0.25.

Regarding CTNP, the enrichment ratio was not above 0.25.

In the case of VQPF, the enrichment ratio was not above 0.25.

On to SFVG, for which the enrichment ratio was 6.8.

As to TFQG, the enrichment ratio was determined as 12.3.

Take WQYT: the enrichment ratio is not above 0.25.

As for PDIG, the enrichment ratio is not above 0.25.

NTMM: the enrichment ratio was not above 0.25.

For FICT, the enrichment ratio was not above 0.25.

As to WRCI, the enrichment ratio was not above 0.25.

As for FMMS, the enrichment ratio is not above 0.25.

As to PTHQ, the enrichment ratio is not above 0.25.

With YKCF, the enrichment ratio was not above 0.25.

On to FQHG, for which the enrichment ratio was not above 0.25.

Turning to IMVC, the enrichment ratio was not above 0.25.

SQKL: the enrichment ratio is not above 0.25.

For the variant MPKG, the enrichment ratio is not above 0.25.

For QVPH, the enrichment ratio is not above 0.25.

Turning to LWTN, the enrichment ratio was not above 0.25.

As to IHTY, the enrichment ratio is not above 0.25.

NGTG: the enrichment ratio is not above 0.25.

As to GVPI, the enrichment ratio is not above 0.25.

Regarding TLLW, the enrichment ratio was not above 0.25.

HYRC: the enrichment ratio was not above 0.25.

On to EDTA, for which the enrichment ratio is not above 0.25.

With HDIN, the enrichment ratio was not above 0.25.

GYHN: the enrichment ratio is not above 0.25.

Turning to MDND, the enrichment ratio was not above 0.25.

Take HGGK: the enrichment ratio is not above 0.25.

For the variant MDQE, the enrichment ratio was not above 0.25.

On to SSNW, for which the enrichment ratio is not above 0.25.

Take EMNC: the enrichment ratio is not above 0.25.

With VRHT, the enrichment ratio was not above 0.25.

With WMSL, the enrichment ratio was not above 0.25.

For FCNT, the enrichment ratio was not above 0.25.

With NTQG, the enrichment ratio was not above 0.25.

For the variant YNLM, the enrichment ratio stood at 8.52.

Turning to IASC, the enrichment ratio was not above 0.25.

As to PHIV, the enrichment ratio is not above 0.25.

Regarding NRCM, the enrichment ratio is not above 0.25.

For LNNV, the enrichment ratio was not above 0.25.

For the variant VEYE, the enrichment ratio is not above 0.25.

Consider KFPV, for which the enrichment ratio was not above 0.25.

Turning to VMTR, the enrichment ratio is not above 0.25.

For the variant KDRG, the enrichment ratio was not above 0.25.

Regarding FNHM, the enrichment ratio was not above 0.25.

Take MLKE: the enrichment ratio is not above 0.25.

LCIA: the enrichment ratio is not above 0.25.

PFDT: the enrichment ratio is not above 0.25.

For SACQ, the enrichment ratio was 13.5.

On to NSCP, for which the enrichment ratio is not above 0.25.

Consider DTLD, for which the enrichment ratio is not above 0.25.

Turning to IQHM, the enrichment ratio is not above 0.25.

In the case of LPWD, the enrichment ratio is not above 0.25.

IQHW: the enrichment ratio is not above 0.25.

Take FARY: the enrichment ratio was not above 0.25.

On to REWG, for which the enrichment ratio is not above 0.25.

On to AVEP, for which the enrichment ratio is not above 0.25.

Turning to YTNT, the enrichment ratio was not above 0.25.

GLNW: the enrichment ratio was not above 0.25.

Consider WNTA, for which the enrichment ratio is not above 0.25.

Turning to YHVW, the enrichment ratio was not above 0.25.

As to PRRF, the enrichment ratio is not above 0.25.

For the variant LDRY, the enrichment ratio was not above 0.25.

Turning to ASTW, the enrichment ratio is not above 0.25.

Consider LESF, for which the enrichment ratio was not above 0.25.

With WDPL, the enrichment ratio is not above 0.25.

Take YEFQ: the enrichment ratio was not above 0.25.

Consider GWPI, for which the enrichment ratio was not above 0.25.

As for QQGC, the enrichment ratio was not above 0.25.

With SWHY, the enrichment ratio was not above 0.25.

As to TFWG, the enrichment ratio was not above 0.25.

As to DNLV, the enrichment ratio was not above 0.25.

Consider YIPE, for which the enrichment ratio is not above 0.25.

For EPQL, the enrichment ratio was not above 0.25.

Turning to RPSA, the enrichment ratio was not above 0.25.

As to MEAC, the enrichment ratio was determined as 37.3.

For the variant TMTP, the enrichment ratio is not above 0.25.

Turning to WKQN, the enrichment ratio is not above 0.25.

As to AGYW, the enrichment ratio is not above 0.25.

With QPDF, the enrichment ratio is not above 0.25.

For HDAR, the enrichment ratio was not above 0.25.

For the variant FLVK, the enrichment ratio is not above 0.25.

In the case of KSAY, the enrichment ratio was 0.715.

For YQPC, the enrichment ratio is not above 0.25.

In the case of YEVA, the enrichment ratio is not above 0.25.

Consider RFTK, for which the enrichment ratio was not above 0.25.

Regarding WAHS, the enrichment ratio is not above 0.25.

Regarding VWLS, the enrichment ratio is not above 0.25.

(Values after a collection of fitness landscapes (doi:10.1126/science.1257360).)
